Legend:
Assay in all cases: biochemical
Histamine H1 receptor = Histamine H1 receptor (Homo sapiens, UniProt P35367); assay type: cell-based, CHO
D(2) dopamine receptor = D(2) dopamine receptor (Homo sapiens, UniProt P14416); assay type: cell-based, CHO
Histamine H3 receptor = Histamine H3 receptor (Homo sapiens, UniProt Q9Y5N1); assay type: cell-based, HEK293
D(1B) dopamine receptor = D(1B) dopamine receptor (Homo sapiens, UniProt P21918)
D(3) dopamine receptor = D(3) dopamine receptor (Homo sapiens, UniProt P35462)
Chain of D(3) dopamine receptor (P35462 whole entry): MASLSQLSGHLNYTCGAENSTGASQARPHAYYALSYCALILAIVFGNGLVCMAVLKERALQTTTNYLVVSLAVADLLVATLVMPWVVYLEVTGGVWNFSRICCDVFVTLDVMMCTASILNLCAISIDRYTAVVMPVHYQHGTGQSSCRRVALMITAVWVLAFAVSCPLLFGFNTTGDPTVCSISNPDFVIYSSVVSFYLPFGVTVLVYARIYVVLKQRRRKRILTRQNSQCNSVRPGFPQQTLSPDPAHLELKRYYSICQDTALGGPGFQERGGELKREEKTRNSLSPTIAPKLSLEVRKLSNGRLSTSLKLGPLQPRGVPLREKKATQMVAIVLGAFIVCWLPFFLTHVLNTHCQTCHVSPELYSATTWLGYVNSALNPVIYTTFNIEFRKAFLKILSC

Chain of Histamine H1 receptor (P35367 whole entry): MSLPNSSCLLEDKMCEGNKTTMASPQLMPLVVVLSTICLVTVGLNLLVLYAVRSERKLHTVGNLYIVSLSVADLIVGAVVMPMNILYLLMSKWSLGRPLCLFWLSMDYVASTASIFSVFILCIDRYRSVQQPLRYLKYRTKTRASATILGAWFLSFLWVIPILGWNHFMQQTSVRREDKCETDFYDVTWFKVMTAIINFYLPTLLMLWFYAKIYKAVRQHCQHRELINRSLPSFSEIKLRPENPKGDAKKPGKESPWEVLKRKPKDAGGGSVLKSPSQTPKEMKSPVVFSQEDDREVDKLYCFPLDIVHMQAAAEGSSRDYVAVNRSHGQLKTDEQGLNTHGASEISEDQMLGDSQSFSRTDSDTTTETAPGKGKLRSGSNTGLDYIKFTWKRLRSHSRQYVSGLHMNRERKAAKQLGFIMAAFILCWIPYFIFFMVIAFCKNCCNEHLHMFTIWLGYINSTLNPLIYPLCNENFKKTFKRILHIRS
Chain of Histamine H3 receptor (Q9Y5N1 whole entry): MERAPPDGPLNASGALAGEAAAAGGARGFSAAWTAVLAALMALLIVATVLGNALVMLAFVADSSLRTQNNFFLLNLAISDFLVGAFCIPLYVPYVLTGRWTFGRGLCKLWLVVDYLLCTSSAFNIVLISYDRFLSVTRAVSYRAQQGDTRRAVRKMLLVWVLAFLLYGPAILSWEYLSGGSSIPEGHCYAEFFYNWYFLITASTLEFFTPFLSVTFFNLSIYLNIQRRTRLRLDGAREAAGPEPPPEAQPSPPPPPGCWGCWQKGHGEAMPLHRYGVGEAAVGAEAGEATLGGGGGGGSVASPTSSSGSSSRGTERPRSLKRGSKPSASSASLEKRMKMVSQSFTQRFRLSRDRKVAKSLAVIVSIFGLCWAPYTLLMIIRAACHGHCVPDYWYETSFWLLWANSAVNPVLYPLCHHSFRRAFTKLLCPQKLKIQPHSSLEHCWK
Chain of D(1B) dopamine receptor (P21918 whole entry): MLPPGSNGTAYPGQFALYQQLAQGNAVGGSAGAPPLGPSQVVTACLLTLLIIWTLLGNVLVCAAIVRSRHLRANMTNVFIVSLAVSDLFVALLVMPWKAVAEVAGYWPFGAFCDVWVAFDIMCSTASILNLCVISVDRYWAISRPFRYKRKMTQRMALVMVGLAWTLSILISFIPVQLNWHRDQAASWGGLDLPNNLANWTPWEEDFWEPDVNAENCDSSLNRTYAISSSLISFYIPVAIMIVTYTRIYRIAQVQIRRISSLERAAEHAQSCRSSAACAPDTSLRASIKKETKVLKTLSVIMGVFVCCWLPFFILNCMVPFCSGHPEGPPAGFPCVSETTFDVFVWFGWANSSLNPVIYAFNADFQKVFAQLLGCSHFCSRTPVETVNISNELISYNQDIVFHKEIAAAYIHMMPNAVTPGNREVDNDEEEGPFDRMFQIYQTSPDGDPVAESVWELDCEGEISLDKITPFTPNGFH
Chain of D(2) dopamine receptor (P14416 whole entry): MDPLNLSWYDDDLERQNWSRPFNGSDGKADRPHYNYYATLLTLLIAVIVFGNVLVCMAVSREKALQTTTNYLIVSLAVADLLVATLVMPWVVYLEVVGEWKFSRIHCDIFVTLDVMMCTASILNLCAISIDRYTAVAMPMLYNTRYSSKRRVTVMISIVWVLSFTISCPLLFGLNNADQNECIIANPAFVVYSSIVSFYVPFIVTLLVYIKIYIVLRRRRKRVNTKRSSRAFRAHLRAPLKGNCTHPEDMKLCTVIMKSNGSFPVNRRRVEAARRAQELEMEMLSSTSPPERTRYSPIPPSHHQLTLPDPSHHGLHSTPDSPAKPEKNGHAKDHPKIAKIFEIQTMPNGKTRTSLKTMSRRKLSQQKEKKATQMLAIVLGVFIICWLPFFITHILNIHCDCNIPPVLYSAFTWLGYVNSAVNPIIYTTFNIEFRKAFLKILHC

Structure (SMILES)	Ki (Histamine H1 receptor) [nM]	further results
CN(C)CC/C=C1/c2ccccc2Sc2ccc(Cl)cc21 [CHLORPROTHIXENE]	3.75	–
CN(CCC=C1c2ccccc2CCc2ccccc21)C(=O)Cc1ccc(OCCCN2CCCCC2)cc1	559	–
CNCCCC12CCC(c3ccccc31)c1ccccc12 [MAPROTILINE]	–	Ki (D(2) dopamine receptor): 665 nM; Ki (Histamine H3 receptor): > 1000 nM; Ki (D(1B) dopamine receptor): 429 nM; Ki (D(3) dopamine receptor): 504 nM
CN1CCN(C2=Nc3cc(Cl)ccc3Nc3ccccc32)CC1 [CLOZAPINE]	–	Ki (Histamine H3 receptor): > 1000 nM
CN(CCC=C1c2ccccc2CCc2ccccc21)C(=O)c1ccc(OCCCN2CCCCC2)cc1	686	–

Second part, led by results:

Ki (Histamine H1 receptor) [nM]	Structure (SMILES)	further results
79	CN(CCC=C1c2ccccc2CCc2ccccc21)Cc1ccc(OCCCN2CCCCC2)cc1	–
190	Clc1ccc2c(c1)N=C(N1CCN(Cc3ccc(OCCCN4CCCCC4)cc3)CC1)c1ccccc1N2	–
390	O=C(OCCN1CCN(CCCN2c3ccccc3Sc3ccc(C(F)(F)F)cc32)CC1)c1ccc(OCCCN2CCCCC2)cc1	–
40	CN(CCCC12CCC(c3ccccc31)c1ccccc12)Cc1ccc(OCCCN2CCCCC2)cc1	–
205	CN(CCCN1c2ccccc2Sc2ccc(Cl)cc21)Cc1ccc(OCCCN2CCCCC2)cc1	–
295	CN(CC/C=C1\c2ccccc2Sc2ccc(Cl)cc21)Cc1ccc(OCCCN2CCCCC2)cc1	Ki (D(1B) dopamine receptor): 297 nM

Reference: ChEMBL document CHEMBL1149085, “Potential utility of histamine H3 receptor antagonist pharmacophore in antipsychotics” (Bioorg Med Chem Lett, 2009)
